Columns and labels:
[1] = target: T1, human PDL1 transgenically expressed on DLD1 cells (human, UniProt Q9NZQ7); assay: FACS on DLD1 cells expressing human PDL1, fluorescent anti-human-IgG detection; mean, SD 782
T1 construct: whole, on cells; also called cell surface PDL1; PDLL
Description: (§1) To test the ability of the proteins to bind cell surface PDL1, we used DLD1 cells expressing transgenically expressed human PDLL. […] Briefly, 10⁵ cells were incubated with different concentrations of the protein for 30 minutes at 4° C. Cells were washed with PBS and incubated with a fluorescent, anti-human-IgG antibody for 30 minutes at 4° C. Cells were again washed with PBS and binding was detected by FACS.

[2] = target: T2, IL2 receptor on human non-Treg (CD4+CD25-) cells (human, UniProt P14784 27-551; P31785 23-369); assay: cell-based or functional assay
T2 sequence (looked up) 1: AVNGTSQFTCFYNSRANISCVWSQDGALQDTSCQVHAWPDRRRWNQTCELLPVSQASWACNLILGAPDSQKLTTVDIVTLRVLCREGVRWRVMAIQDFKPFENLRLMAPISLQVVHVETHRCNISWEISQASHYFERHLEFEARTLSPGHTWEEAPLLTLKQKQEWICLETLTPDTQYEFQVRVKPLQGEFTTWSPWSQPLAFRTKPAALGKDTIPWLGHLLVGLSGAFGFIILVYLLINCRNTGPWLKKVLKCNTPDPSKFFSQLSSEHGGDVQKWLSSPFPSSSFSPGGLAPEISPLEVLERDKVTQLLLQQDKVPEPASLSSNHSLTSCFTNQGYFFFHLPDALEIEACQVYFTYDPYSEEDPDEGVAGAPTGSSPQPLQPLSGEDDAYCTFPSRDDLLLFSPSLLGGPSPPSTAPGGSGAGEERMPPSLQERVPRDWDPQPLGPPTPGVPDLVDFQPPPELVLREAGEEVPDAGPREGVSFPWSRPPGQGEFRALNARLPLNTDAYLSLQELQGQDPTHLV
T2 sequence (looked up) 2: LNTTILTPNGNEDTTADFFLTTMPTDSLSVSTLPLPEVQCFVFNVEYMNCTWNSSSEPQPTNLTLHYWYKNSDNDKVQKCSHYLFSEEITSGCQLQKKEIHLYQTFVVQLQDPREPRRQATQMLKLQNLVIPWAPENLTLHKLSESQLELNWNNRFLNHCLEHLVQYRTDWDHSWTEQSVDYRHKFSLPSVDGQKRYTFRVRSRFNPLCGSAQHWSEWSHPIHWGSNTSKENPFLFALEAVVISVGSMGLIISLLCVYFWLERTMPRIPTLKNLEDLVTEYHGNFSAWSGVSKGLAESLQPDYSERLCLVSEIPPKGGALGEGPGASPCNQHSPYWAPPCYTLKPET

[3] = target: T3, IL2 receptor on human Treg (CD4+CD25high) cells (human, UniProt P01589 22-272; P14784 27-551; P31785 23-369); assay: cell-based or functional assay
T3 sequence (looked up) 1: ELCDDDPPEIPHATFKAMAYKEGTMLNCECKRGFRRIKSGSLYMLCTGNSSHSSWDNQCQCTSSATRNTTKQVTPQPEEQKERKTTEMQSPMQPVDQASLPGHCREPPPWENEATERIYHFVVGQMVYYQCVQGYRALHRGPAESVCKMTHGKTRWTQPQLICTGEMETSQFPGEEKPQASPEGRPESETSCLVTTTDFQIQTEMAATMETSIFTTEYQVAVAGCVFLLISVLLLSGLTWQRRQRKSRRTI
T3 sequence (looked up) 2: T2 sequence (looked up) 1
T3 sequence (looked up) 3: T2 sequence (looked up) 2

[4] = target: T1, human PDL1 transgenically expressed on …; assay: FACS on DLD1 cells expressing human PDL1, fluorescent anti-human-IgG detection; mean, SD 1294
Description: as §1

T1 sequence (Q9NZQ7 19-290): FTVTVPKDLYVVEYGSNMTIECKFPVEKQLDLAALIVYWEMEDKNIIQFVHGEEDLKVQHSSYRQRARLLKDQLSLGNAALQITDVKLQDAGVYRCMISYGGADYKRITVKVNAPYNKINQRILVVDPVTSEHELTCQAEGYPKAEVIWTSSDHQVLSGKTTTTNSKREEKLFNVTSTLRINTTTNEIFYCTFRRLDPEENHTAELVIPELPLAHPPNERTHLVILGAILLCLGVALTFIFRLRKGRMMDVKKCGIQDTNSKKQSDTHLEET

B1: E1M1 (E1 anti-PDL1 antibody fused to MutIL2 IL2M1: F42K, Y45R) (other)
heavy: QIQLVQSGAEVKMPGASVTISCEASGYNFISYYIHWVRQAPGQGLEWMGFVVPSGGAAGYTQKFQGRLTVTRDTSTSTVYMDLNSLTSDDTAVYYCVREMSGGWFDFWGQGTLVTVSS[sequence of human IgG1 constant region not given]GGGGSGGGGSGGGGSGGGGSG[sequence of about 150 residues not given]
light: DIVMTQSPSSLSASVGDRVTITCRASQGIRNDLGWYQQKPGKAPKLLIYAASTLQSGVPSRFSGSGSGTDFTLTISSLQAEDVAVYYCQQYYSTPLTFGPGTKVDIKRTVAAPSVFIFPPSDEQLKSGTASVVCLLNNFYPREAKVQWKVDNALQSGNSQESVTEQDSKDSTYSLSSTLTLSKADYEKHKVYACEVTHQGLSSPVTKSFNRGEC
notes: The heavy and light entries include the secretory leader
EC50 [1]: 2.44 nM
EC50 for Stat5 phosphorylation in non-Treg (CD4+CD25-) cells, median [2]: 198 pM
EC50 for Stat5 phosphorylation in Treg (CD4+CD25high) cells, median [3]: 149 pM

B2: E1M2 (E1 anti-PDL1 antibody fused to MutIL2 IL2M2: F42A, Y45R) (other)
heavy: QIQLVQSGAEVKMPGASVTISCEASGYNFISYYIHWVRQAPGQGLEWMGFVVPSGGAAGYTQKFQGRLTVTRDTSTSTVYMDLNSLTSDDTAVYYCVREMSGGWFDFWGQGTLVTVSS[sequence of human IgG1 constant region not given]GGGGSGGGGSGGGGSGGGGSG[sequence of about 150 residues not given]
light: B1 light
notes: as for B1
EC50 [4]: 3.2 nM
EC50 for Stat5 phosphorylation in non-Treg (CD4+CD25-) cells, median [2]: 207 pM
EC50 for Stat5 phosphorylation in Treg (CD4+CD25high) cells, median [3]: 198 pM

— patent US20210388049A1 (1GLOBE BIOMEDICAL, published 2021)
